Results published in patent US20230255946A1 (Pure Tech LYT 100, Inc., priority 2020, published 2023).

Assay: Single dose, double-blinded, cross-over clinical trial of 801 mg LYT-100 vs pirfenidone, safety and pharmacokinetics
Details: 801 mg each

With `O=c1ccc(CO)cn1-c1ccccc1` [LYT-111, 5-hydroxymethyl-pirfenidone] the “overall systemic exposure (AUC) of metabolite greater after administration of LYT-100” value was “approximately 50%”.
